# In the supplement of paper PMC8728848:
# This is one part of the list.
# B1: LngA (Escherichia coli) (protein)
# chain: MLSVYNRTQKFKAEARKKIAKYHELRKQRGMSLLEVIIVLGIIGTIAAGVVILAQRAFDSRAVTDLVTNTNTVRVRMKDAYQRDGKYPDFVDPLSLTANTIKTDTSGIPAAQLVQLGKITPDEVRNNISGDFIAIGGALTSNGAQVKKGFAIELNGLSQEQCRSILGQVGNNWEYVAIGTSASGSYAMTATGVDMSVAASTTVLRSLGNNGQTTLTADKILSTCTAQVNSITLGSR
# Key:
# Test in all cases: glycan array binding signal (z-score within array); higher = stronger binding
# Details in all cases: glycan notation: IUPAC condensed, linker removed
# [1] = molecular target: Neu5Ac(a2-3)Gal(b1-4)GlcNAc(b1-2)[Neu5Ac(a2-3)Gal(b1-4)GlcNAc(b1-4)]Man(a1-3)[GlcNAc(b1-4)][Neu5Ac(a2-3)Gal(b1-4)GlcNAc(b1-4)Man(a1-6)]Man(b1-4)GlcNAc(b1-4)GlcNAc
# How it was run: (§1)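 The Consortium for Functional Glycomics database supplied 3228 glycan arrays, of which those lacking an available protein sequence were dropped. The binding signal, a within-array Z-score, was averaged across arrays of the same protein sequence and across linkers. Negative scores can be read as non-binding.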
# [2] = molecular target: Neu5Ac(a2-3)Gal(b1-4)GlcNAc(b1-2)[Neu5Ac(a2-3)Gal(b1-4)GlcNAc(b1-6)]Man(a1-6)[Neu5Ac(a2-3)Gal(b1-4)GlcNAc(b1-2)Man(a1-3)]Man(b1-4)GlcNAc(b1-4)GlcNAc
# How it was run: as §1
# [3] = molecular target: Neu5Ac(a2-3)Gal(b1-4)GlcNAc(b1-2)[Neu5Ac(a2-3)Gal(b1-4)GlcNAc(b1-6)]Man(a1-6)[Neu5Ac(a2-3)Gal(b1-4)GlcNAc(b1-2)Man(a1-3)][GlcNAc(b1-4)]Man(b1-4)GlcNAc(b1-4)GlcNAc
# How it was run: as §1
# [4] = molecular target: Neu5Ac(a2-3)Gal(b1-4)GlcNAc(b1-3)Gal
# How it was run: as §1
# [5] = molecular target: Neu5Ac(a2-3)Gal(b1-4)GlcNAc(b1-3)Gal(b1-3)GlcNAc
# How it was run: as §1
# [6] = molecular target: Neu5Ac(a2-3)Gal(b1-4)GlcNAc(b1-3)Gal(b1-4)GlcNAc
# How it was run: as §1
# [7] = molecular target: Neu5Ac(a2-3)Gal(b1-4)GlcNAc(b1-3)Gal(b1-4)GlcNAc(b1-2)Man(a1-3)[Neu5Ac(a2-3)Gal(b1-4)GlcNAc(b1-3)Gal(b1-4)GlcNAc(b1-2)Man(a1-6)]Man(b1-4)GlcNAc(b1-4)GlcNAc
# How it was run: as §1
# [8] = molecular target: Neu5Ac(a2-3)Gal(b1-4)GlcNAc(b1-3)Gal(b1-4)GlcNAc(b1-3)Gal(b1-4)GlcNAc
# How it was run: as §1
# [9] = molecular target: Neu5Ac(a2-3)Gal(b1-4)GlcNAc(b1-3)Gal(b1-4)GlcNAc(b1-3)Gal(b1-4)GlcNAc(b1-2)Man(a1-3)[Neu5Ac(a2-3)Gal(b1-4)GlcNAc(b1-3)Gal(b1-4)GlcNAc(b1-3)Gal(b1-4)GlcNAc(b1-2)Man(a1-6)]GalNAc
# How it was run: as §1
# [10] = molecular target: Neu5Ac(a2-3)Gal(b1-4)GlcNAc(b1-3)Gal(b1-4)GlcNAc(b1-3)GalNAc
# How it was run: as §1
# [11] = molecular target: Neu5Ac(a2-3)Gal(b1-4)GlcNAc(b1-3)Gal(b1-4)GlcNAc(b1-3)[Neu5Ac(a2-3)Gal(b1-4)GlcNAc(b1-3)Gal(b1-4)GlcNAc(b1-6)]GalNAc
# How it was run: as §1
# [12] = molecular target: Neu5Ac(a2-3)Gal(b1-4)GlcNAc(b1-3)Gal(b1-4)GlcNAc(b1-6)[Gal(b1-3)]GalNAc
# How it was run: as §1
# [13] = molecular target: Neu5Ac(a2-3)Gal(b1-4)GlcNAc(b1-3)Gal(b1-4)[Fuc(a1-3)]GlcNAc
# How it was run: as §1
# [14] = molecular target: Neu5Ac(a2-3)Gal(b1-4)GlcNAc(b1-3)GalNAc
# How it was run: as §1
# [15] = molecular target: Neu5Ac(a2-3)Gal(b1-4)GlcNAc(b1-3)[Neu5Ac(a2-3)Gal(b1-4)GlcNAc(b1-6)]GalNAc
# How it was run: as §1
# [16] = molecular target: Neu5Ac(a2-3)Gal(b1-4)GlcNAc(b1-6)GalNAc
# How it was run: as §1
# [17] = molecular target: Neu5Ac(a2-3)Gal(b1-4)GlcNAc(b1-6)[Gal(b1-3)]GalNAc
# How it was run: as §1
# [18] = molecular target: Neu5Ac(a2-3)Gal(b1-4)GlcNAc(b1-6)[Neu5Ac(a2-3)Gal(b1-3)]GalNAc
# How it was run: as §1
# [19] = molecular target: Neu5Ac(a2-3)Gal(b1-4)GlcNAc6S
# How it was run: as §1
# [20] = molecular target: Neu5Ac(a2-3)Gal(b1-4)[Fuc(a1-3)]GlcNAc
# How it was run: as §1
# [21] = molecular target: Neu5Ac(a2-3)Gal(b1-4)[Fuc(a1-3)]GlcNAc(b1-2)Man
# How it was run: as §1
# [22] = molecular target: Neu5Ac(a2-3)Gal(b1-4)[Fuc(a1-3)]GlcNAc(b1-3)Gal
# How it was run: as §1
# [23] = molecular target: Neu5Ac(a2-3)Gal(b1-4)[Fuc(a1-3)]GlcNAc(b1-3)Gal(b1-4)GlcNAc
# How it was run: as §1
# [24] = molecular target: Neu5Ac(a2-3)Gal(b1-4)[Fuc(a1-3)]GlcNAc(b1-3)Gal(b1-4)[Fuc(a1-3)]GlcNAc(b1-3)Gal(b1-4)[Fuc(a1-3)]GlcNAc
# How it was run: as §1
# [25] = molecular target: Neu5Ac(a2-3)Gal(b1-4)[Fuc(a1-3)]GlcNAc(b1-3)GalNAc
# How it was run: as §1
# [26] = molecular target: Neu5Ac(a2-3)Gal(b1-4)[Fuc(a1-3)]GlcNAc(b1-6)[Gal(b1-3)]GalNAc
# How it was run: as §1
# [27] = molecular target: Neu5Ac(a2-3)Gal(b1-4)[Fuc(a1-3)]GlcNAc(b1-6)[Neu5Ac(a2-3)Gal(b1-3)]GalNAc
# How it was run: as §1
# [28] = molecular target: Neu5Ac(a2-3)Gal(b1-4)[Fuc(a1-3)]GlcNAc6S
# How it was run: as §1
# [29] = molecular target: Neu5Ac(a2-3)Gal6S(b1-4)GlcNAc
# How it was run: as §1
# [30] = molecular target: Neu5Ac(a2-3)Gal6S(b1-4)[Fuc(a1-3)]GlcNAc
# How it was run: as §1
# Neu5Ac(a2-3)GalNAc = molecular target: Neu5Ac(a2-3)GalNAc
# How it was run: as §1
# [31] = molecular target: Neu5Ac(a2-3)GalNAc(b1-4)GlcNAc
# How it was run: as §1
# [32] = molecular target: Neu5Ac(a2-3)[GalNAc(b1-4)]Gal(b1-4)Glc
# How it was run: as §1
# [33] = molecular target: Neu5Ac(a2-3)[GalNAc(b1-4)]Gal(b1-4)GlcNAc
# How it was run: as §1
# [34] = molecular target: Neu5Ac(a2-3)[GalNAc(b1-4)]Gal(b1-4)GlcNAc(b1-3)GalNAc
# How it was run: as §1
# [35] = molecular target: Neu5Ac(a2-3)[Neu5Ac(a2-6)]GalNAc
# How it was run: as §1
# Neu5Ac(a2-6)Gal = molecular target: Neu5Ac(a2-6)Gal
# How it was run: as §1
# [36] = molecular target: Neu5Ac(a2-6)Gal(b1-3)GlcNAc(b1-3)[Gal(b1-4)GlcNAc(b1-6)]Gal(b1-4)Glc
# How it was run: as §1
# Neu5Ac(a2-6)Gal(b1-4)Glc = molecular target: Neu5Ac(a2-6)Gal(b1-4)Glc
# How it was run: as §1
# [37] = molecular target: Neu5Ac(a2-6)Gal(b1-4)GlcNAc
# How it was run: as §1
# [38] = molecular target: Neu5Ac(a2-6)Gal(b1-4)GlcNAc(b1-2)Man
# How it was run: as §1
# [39] = molecular target: Neu5Ac(a2-6)Gal(b1-4)GlcNAc(b1-2)Man(a1-3)Man(b1-4)GlcNAc(b1-4)GlcNAc
# How it was run: as §1
# [40] = molecular target: Neu5Ac(a2-6)Gal(b1-4)GlcNAc(b1-2)Man(a1-3)[Gal(b1-4)GlcNAc(b1-2)Man(a1-6)]Man(b1-4)GlcNAc(b1-4)GlcNAc
# How it was run: as §1
# [41] = molecular target: Neu5Ac(a2-6)Gal(b1-4)GlcNAc(b1-2)Man(a1-3)[GlcNAc(b1-2)Man(a1-6)]Man(b1-4)GlcNAc(b1-4)GlcNAc
# How it was run: as §1
# [42] = molecular target: Neu5Ac(a2-6)Gal(b1-4)GlcNAc(b1-2)Man(a1-3)[GlcNAc(b1-4)][Neu5Ac(a2-6)Gal(b1-4)GlcNAc(b1-2)Man(a1-6)]Man(b1-4)GlcNAc(b1-4)GlcNAc
# How it was run: as §1
binder,measurement,setting,value
B1,glycan array binding signal (z-score),[1],-0.407
same,glycan array binding signal (z-score),[2],-0.321
same,glycan array binding signal (z-score),[3],-0.539
same,glycan array binding signal (z-score),[4],-0.531
same,glycan array binding signal (z-score),[5],-0.515
same,glycan array binding signal (z-score),[6],-0.593
same,glycan array binding signal (z-score),[7],-0.062
same,glycan array binding signal (z-score),[8],-0.508
same,glycan array binding signal (z-score),[9],1.17
same,glycan array binding signal (z-score),[10],-0.253
same,glycan array binding signal (z-score),[11],-0.429
same,glycan array binding signal (z-score),[12],0.158
same,glycan array binding signal (z-score),[13],2.73
same,glycan array binding signal (z-score),[14],-0.44
same,glycan array binding signal (z-score),[15],-0.3
same,glycan array binding signal (z-score),[16],-0.344
same,glycan array binding signal (z-score),[17],-0.422
same,glycan array binding signal (z-score),[18],-0.439
same,glycan array binding signal (z-score),[19],-0.401
same,glycan array binding signal (z-score),[20],-0.589
same,glycan array binding signal (z-score),[21],0.287
same,glycan array binding signal (z-score),[22],-0.591
same,glycan array binding signal (z-score),[23],-0.503
same,glycan array binding signal (z-score),[24],-0.536
same,glycan array binding signal (z-score),[25],-0.43
same,glycan array binding signal (z-score),[26],-0.225
same,glycan array binding signal (z-score),[27],1.03
same,glycan array binding signal (z-score),[28],-0.346
same,glycan array binding signal (z-score),[29],-0.286
same,glycan array binding signal (z-score),[30],-0.54
same,glycan array binding signal (z-score),Neu5Ac(a2-3)GalNAc,-0.363
same,glycan array binding signal (z-score),[31],-0.567
same,glycan array binding signal (z-score),[32],-0.536
same,glycan array binding signal (z-score),[33],-0.565
same,glycan array binding signal (z-score),[34],-0.07
same,glycan array binding signal (z-score),[35],-0.367
same,glycan array binding signal (z-score),Neu5Ac(a2-6)Gal,-0.107
same,glycan array binding signal (z-score),[36],-0.533
same,glycan array binding signal (z-score),Neu5Ac(a2-6)Gal(b1-4)Glc,-0.2
same,glycan array binding signal (z-score),[37],-0.405
same,glycan array binding signal (z-score),[38],-0.028
same,glycan array binding signal (z-score),[39],-0.351
same,glycan array binding signal (z-score),[40],-0.321
same,glycan array binding signal (z-score),[41],-0.512
same,glycan array binding signal (z-score),[42],-0.423
